Measured values taken from the supplement of paper PMC4166925.
± gives the standard deviation of the averaged measurements. In all, about 33,000 sequences were measured (“E-score (dimensionless, -0.5 to 0.5)”: median about -0.049, highest 2% from about 0.37 on). The list shows a part of the results.

system: T1, PmTbr T-box DNA-binding domain (GST fusion); assay: PBM E-score of 8-mer (E-score (dimensionless, -0.5 to 0.5)); Tbr is Tbrain of the sea star Patiria miniata (Pm) or the sea urchin Strongylocentrotus purpuratus (Sp); higher = stronger binding preference; most listed sequences are background and not binding sites; conditions: the construct has about 5 more residues each side
T1 sequence: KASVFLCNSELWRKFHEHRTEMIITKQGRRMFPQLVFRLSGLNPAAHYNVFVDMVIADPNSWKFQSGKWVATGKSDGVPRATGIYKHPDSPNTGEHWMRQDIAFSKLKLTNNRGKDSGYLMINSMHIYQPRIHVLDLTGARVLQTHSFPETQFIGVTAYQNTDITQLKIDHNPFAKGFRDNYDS
Method in brief: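 GST-fused Tbr T-box DNA-binding domains (the whole T-box plus about five flanking residues) were expressed in BL21 E. coli at 20 °C and purified by glutathione affinity chromatography. Universal Agilent oligonucleotide arrays were made double-stranded by primer extension, incubated with 200 nM protein in PBS (pH 7.5), then scanned and quantified. Every ungapped 8-mer was scored from probe intensities. The Universal PBM Analysis Suite gave each word an enrichment E-score, averaged over duplicate arrays.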

Sequence	PBM E-score of 8-mer
CGCGTGTC	0.24 ± 0.041
TGTTTAAA	-0.221 ± 0.076
GCGGCCCC	-0.0979 ± 0.012
AGGTCAGG	-0.109 ± 0.022
ATCTGGAC	-0.0994 ± 0.061
ATTTTAGC	0.291 ± 0.035
GGATTTCA	-0.104 ± 0.038
GGTATTCA	-0.1642 ± 0.0013
CACCTGTC	0.4274 ± 0.0023
AGCACTCC	0.0238 ± 0.034
ACAGGGCA	-0.0494 ± 0.027
GTCTTATA	-0.0862 ± 0.057
CAGATAAG	-0.113 ± 0.0039
GCGCTGCA	0.0344 ± 0.022
GTCCCGCA	-0.0582 ± 0.07
CTGGAACA	-0.0692 ± 0.018
CCCGCTGC	-0.0271 ± 0.056
CGCGCTGC	0.163 ± 0.024
AGTCACTC	0.0567 ± 0.037
AGTTGATA	0.135 ± 0.072
GACTCACA	0.277 ± 0.055
CTGAACAG	-0.00301 ± 0.016
CTCGATCA	0.0196 ± 0.0013
ACGCGAAA	0.133 ± 0.039
ATCTAGTC	-0.203 ± 0.026

Sequence	PBM E-score of 8-mer
AGCTAAAC	-0.183 ± 0.016
CGTCCTCC	-0.316 ± 0.021
CGTTATGA	0.015 ± 0.021
AAAACTGT	0.107 ± 0.11
AAACTTAC	0.0511 ± 0.054
AGAGTCGA	-0.0112 ± 0.044
CTGACGAA	0.0955 ± 0.048
GCACTGCA	-0.101 ± 0.0072
GACGCTAA	0.174 ± 0.044
ATGGGATC	-0.177 ± 0.02
CCCCACCA	-0.104 ± 0.066
ACGGTCCC	-0.134 ± 0.016
AGCAAACC	-0.134 ± 0.014
CGGTCACG	0.138 ± 0.054
GCCGGCTA	-0.0619 ± 0.027
AACTCGGT	-0.129 ± 0.011
AATGAAAT	-0.113 ± 0.065
GCTCTACC	0.0252 ± 0.074
AAAAAGAA	-0.231 ± 0.12
AGTATCCC	-0.0929 ± 0.077
AACATTGT	0.104 ± 0.049
TCTCTGAA	-0.13 ± 0.039
AATTACGG	-0.271 ± 0.01
ATAGAATC	-0.0962 ± 0.04
ACATGATG	0.178 ± 0.017

Sequence	PBM E-score of 8-mer
GTTTTTAA	-0.131 ± 0.14
AACCCATA	0.117 ± 0.051
ACCGTCGG	-0.218 ± 0.057
ATCGCCGG	-0.0499 ± 0.037
GCTCCACC	0.0538 ± 0.037
ACCCCTCG	0.0543 ± 0.046
AGCTCAAC	-0.0632 ± 0.1
AGTGACTG	0.105 ± 0.051
AGTGCTGC	0.0868 ± 0.0037
CAGTTATC	0.0106 ± 0.071
AAACTCTA	-0.0768 ± 0.0047
CAGGTTAA	-0.177 ± 0.069
CTATGAGA	-0.223 ± 0.036
AAAATCTA	0.122 ± 0.046
ATGATGGC	-0.0836 ± 0.076
AGCTACAA	-0.25031 ± 0.00016
ACGAGAGA	-0.1623 ± 0.00055
AAAATAGA	-0.291 ± 0.067
ATTCAGTC	-0.149 ± 0.033
AAATCACA	0.362 ± 0.038
AGCGGCCA	-0.0735 ± 0.1
CGATCCCC	-0.0111 ± 0.13
GATGCTAC	-0.0723 ± 0.021
CCCGTGCC	-0.0277 ± 0.0075
GAGACTCC	-0.0191 ± 0.097

Sequence	PBM E-score of 8-mer
CAAAAGTG	0.316 ± 0.032
CGCTGTCC	-0.197 ± 0.032
AGGAGAGA	-0.019 ± 0.041
GTCAAGTA	0.182 ± 0.0095
CGAAAGTC	0.0804 ± 0.023
AAAGAGTG	0.197 ± 0.068
CACTGCGC	0.156 ± 0.022
GTCCACTA	-0.192 ± 0.057
AGTAAAAG	-0.142 ± 0.0089
AACCCAGG	-0.176 ± 0.0097
ATTGCGAA	0.27169 ± 0.00012
AGTCGGTA	0.0807 ± 0.042
ACTCTACC	-0.191 ± 0.01
TGGAAGAA	-0.213 ± 0.053
ATCATGCC	-0.19 ± 0.004
GGTGGTAA	0.3413 ± 0.0013
ATAATTAG	-0.077 ± 0.0093
ACCATGTG	0.202 ± 0.018
TCCCATCA	-0.0906 ± 0.0075
AAAGCGTC	0.169 ± 0.02
GCGTGGAA	0.131 ± 0.019
GTACAAAC	-0.141 ± 0.13
TATGGTAA	-0.2 ± 0.011
GGCATGTA	-0.298 ± 0.027
CATCCACC	-0.0688 ± 0.032

Sequence	PBM E-score of 8-mer
GTAAGAAA	0.0389 ± 0.083
CCAGACCG	-0.2614 ± 0.0022
AACGAGTC	-0.154 ± 0.018
AGCATTGG	-0.13 ± 0.022
AGCCTCGC	-0.0403 ± 0.096
CATAACCA	-0.0323 ± 0.065
GTGAGTCA	0.224 ± 0.084
ATTAGTGA	0.105 ± 0.05
AGCCCGGC	-0.0286 ± 0.0078
AAAGTACT	-0.126 ± 0.067
CCCACAGC	-0.0631 ± 0.061
GCGGAATA	-0.00213 ± 0.0067
GCATGAAC	0.042 ± 0.029
CGGCGTTC	-0.052 ± 0.049
CCTAGTAG	-0.0647 ± 0.067
ATTGATAA	-0.158 ± 0.098
CCCGACGA	-0.044 ± 0.062
CCTGGTAA	0.098 ± 0.0073
ACCATCGT	-0.0823 ± 0.0028
CAGATGGG	-0.0596 ± 0.028
CAAGACGG	0.0261 ± 0.063
ACCGAATA	-0.00183 ± 0.016
GTCCCGGA	-0.189 ± 0.039
CACCATGC	0.201 ± 0.029
AGCACAAA	-0.145 ± 0.017

Sequence	PBM E-score of 8-mer
GAGTTTTA	-0.0137 ± 0.067
CCCCTTAA	-0.195 ± 0.041
TCTCGGCA	0.055 ± 0.037
ACACATAA	0.251 ± 0.0089
GCACGCAC	0.18 ± 0.093
AACGGGAG	0.037 ± 0.067
TCACGCGA	0.357 ± 0.027
TAGACGGA	-0.2 ± 0.012
AAGCTGCT	0.0723 ± 0.041
GAGCTTTA	-0.196 ± 0.0087
GCGGGACC	-0.0386 ± 0.0097
CCTCGAGA	-0.143 ± 0.026
ACCTCACT	0.189 ± 0.017
ACACGTAG	0.206 ± 0.0044
GTGGCTTA	-0.0817 ± 0.015
CGGTAGGC	0.0808 ± 0.045
CGCAGTCC	-0.0841 ± 0.063
GAGGCTTA	-0.18 ± 0.036
CTTCCAAC	-0.107 ± 0.058
CGTAGCAA	0.0169 ± 0.038
AGTGTACA	-0.126 ± 0.048
AGGGGAGA	-0.0806 ± 0.032
TTTTAAAA	-0.201 ± 0.035
TATAGTAA	-0.179 ± 0.11
CCCCCCTC	-0.272 ± 0.073

Sequence	PBM E-score of 8-mer
TAGTACGA	-0.175 ± 0.015
AAGCGCAT	-0.137 ± 0.061
CGAGTCGC	0.158 ± 0.06
ACCAATTA	-0.0574 ± 0.015
GACAACAC	0.391 ± 0.014
TCCCGCAA	-0.211 ± 0.0079
CGTGACGA	0.331 ± 0.031
ACACTACA	0.185 ± 0.076
ACGGAGGC	-0.192 ± 0.1
GGAGTTGA	-0.0606 ± 0.067
GATCACGC	0.287 ± 0.017
CTCCTAGC	0.0648 ± 0.041
ACGAATAG	0.0308 ± 0.068
CCAGTAGG	0.1953 ± 0.0019
TATTACCA	-0.0211 ± 0.043
ACTCTCCG	-0.0258 ± 0.0077
ACCCACTG	-0.124 ± 0.041
CAGTACCC	-0.00453 ± 0.072
GGCGTTCA	-0.0159 ± 0.093
ACCTAAAA	-0.0417 ± 0.06
TATACAGA	-0.169 ± 0.076
CGCATACA	-0.0826 ± 0.01
